Source: PubChem BioAssay AID2675 (National Center for Advancing Translational Sciences (NCATS), 2010)
The whole screen tested about 280,000 compounds, of which about 100 (0.036%) were called active. Inconclusive results, whose numbers are uncertain, are shown with a selection of clear calls. Calls follow the shape of the dose curve; as a rule, active = well fitted inhibition curve with a large enough effect in the signal ratio, with a control signal flat (not every such curve was filed as active); inconclusive = small, poorly fitted or top-dose-only effect, or effect the other way, or a change in a side signal; inactive = no such curve, though single readings can be large or run the other way; the % refers to the signal ratio. A potency beside an inconclusive call is a rough fit, not a confirmed value. A note “side channel” means that the fit belongs to a control or component signal, not to the main read-out.

The compounds below were run against Muscleblind-like protein 1 (Homo sapiens) (UniProt Q9NR56) (assay: qHTS Assay for Inhibitors of MBNL1-poly(CUG) RNA binding). Conditions: TR-FRET MBNL1-His/biotin-(CUG)12 binding, 665/545 ratio; series mostly up to 57.5 µM.
Sequence of UniProt Q9NR56 (Q9NR56 whole entry, looked up): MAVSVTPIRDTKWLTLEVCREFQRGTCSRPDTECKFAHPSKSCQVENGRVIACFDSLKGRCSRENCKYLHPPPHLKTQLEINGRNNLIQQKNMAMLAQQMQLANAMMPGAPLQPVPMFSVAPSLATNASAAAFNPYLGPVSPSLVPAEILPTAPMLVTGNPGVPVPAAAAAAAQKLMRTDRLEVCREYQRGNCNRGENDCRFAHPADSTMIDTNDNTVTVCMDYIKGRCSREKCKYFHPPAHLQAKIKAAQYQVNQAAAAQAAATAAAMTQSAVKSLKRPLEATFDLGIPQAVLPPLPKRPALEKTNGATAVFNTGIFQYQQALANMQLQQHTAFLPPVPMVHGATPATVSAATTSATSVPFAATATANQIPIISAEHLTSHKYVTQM
Summary of the method: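 MBNL1-His + Biotin-(CUG)12, cpd titration 92 nM–58 uM; Tb anti-His Ab 0.055 ng/ul, SA-XL665 5 nM (final); 60 min RT; ratiometric 665/545 nm, Ex 340 nm; normalized to buffer and full-complex controls.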
Potency is read from the fitted curve at half-maximal effect; tags tell the direction and shape of the fitted curve or compound fluorescence and quenching.

| Structure (SMILES) | Potency |
| --- | --- |
| COc1ccc(CN2C(=O)c3ccc(C(=O)O)cc3C2=O)cc1 | inconclusive: 28.2 µM [quencher, side channel, single point] |
| CC(C)c1ccc(NC(=O)CSc2nnc(CN3CCOCC3)n2C)cc1 | inconclusive: 200 µM [inhibitor, partial curve] |
| CC1CCc2sc(NC(=O)c3ccc(N4C(=O)CCC4=O)cc3)c(C(N)=O)c2C1 (configuration not stated) | inactive |
| CC(=O)NC(Cc1cccc(F)c1)C(=O)NC1CCN(c2ncccc2[N+](=O)[O-])CC1 (configuration not stated) | inconclusive: 28.2 µM [quencher, side channel, partial curve] |
| Cc1cc([N+](=O)[O-])nn1CC(=O)N1c2ccccc2CC1C (configuration not stated) | inconclusive: 28.2 µM [quencher, side channel, single point] |
| OCC1OC(n2nnc3ccccc32)C(O)C(O)C1O (configuration not stated) | inactive |
| CCC(=O)NC(=S)Nc1ccc(Cl)cn1 | inactive |
| COc1cc2c(cc1OC)CN(C(=O)/C=C/c1ccccc1[N+](=O)[O-])CC2 | inconclusive: 11.2 µM [quencher, side channel, partial curve] |
| NC(=O)c1ccccc1NS(=O)(=O)Cc1ccc(Cl)cc1 | inactive |
| O=C(O)C12CC3CC(C1)CC(n1ncc(N4CCN(c5ccccc5)CC4)c(Cl)c1=O)(C3)C2 | inconclusive: 28.2 µM [quencher, side channel, single point] |
| Cn1c(SCC(=O)N/N=C/c2cccs2)nc2ccccc21 | inconclusive: 22.4 µM [quencher, side channel, single point] |
| Cc1cc(NS(=O)(=O)c2ccc(NC(=O)c3cc(-c4ccccc4Cl)nc4ccccc34)cc2)no1 | inconclusive: 2.51 µM [quencher, side channel, full curve, poor fit] |
| CC(/C=C/C=C/c1ccccc1)=N/NC(=O)CNc1ccc(C)cc1 | inconclusive: 20 µM [quencher, side channel, single point] |
| Cc1ccc(OCC(=O)Nc2cccc(S(=O)(=O)NC3=NCCCCC3)c2)cc1C | inactive |
| CC(C)(C)c1ccc(C(=O)NCCOc2ccccc2)cc1 | inactive |
| O=[N+]([O-])c1ccc(NCc2ccccn2)nc1 | inconclusive: 22.4 µM [quencher, side channel, partial curve] |
| Cc1ccc(Cn2c(SCCN3CCCCC3)nc3c2c(=O)[nH]c(=O)n3C)cc1 | inactive |
| CCc1c(C)c2c(C)nn(-c3ccccc3)c2[nH]c1=O | inconclusive: 3.16 µM [quencher, side channel, single point] |
| COc1cccc(CNC(=O)Cn2nc([N+](=O)[O-])c(Br)c2C)c1 | inconclusive: 31.6 µM [quencher, side channel, partial curve] |
| CCN(CC)C(=S)SCC(=O)Nc1nc(-c2ccccc2)c(-c2ccccc2)o1 | inconclusive: 39.8 µM [quencher, side channel, single point] |
| COc1cc(O)sc1C=Nc1ccc(Cl)cc1 | inconclusive: 15.8 µM [quencher, side channel, partial curve] |

| Structure (SMILES) | Potency |
| --- | --- |
| Cc1nc2ccc(C(=O)N/N=C/c3ccccc3O)cc2[nH]1 | inconclusive: 22.4 µM [quencher, side channel, single point] |
| c1cc2c3c(cccc3c1)C(N1CCCCCC1)=N2 | inconclusive: 28.2 µM [quencher, side channel, partial curve] |
| CC(=O)Cn1nnc2sc3c(c2c1=O)CCC(C(C)(C)C)C3 (configuration not stated) | inconclusive: 15.8 µM [quencher, side channel, partial curve] |
| Cc1ccc(C)c(C(=O)Cn2ncc(Cl)c(Cl)c2=O)c1 | inactive |
| COc1ccc(-c2cc(=O)oc3c(C)c(OC(C)C(C)=O)ccc23)cc1 (configuration not stated) | inconclusive: 28.2 µM [quencher, side channel, single point] |
| CC(Cc1ccccc1)NC(=O)/C=C/c1ccc([N+](=O)[O-])cc1 (configuration not stated) | inconclusive: 14.1 µM [quencher, side channel, partial curve] |
| CC(C)=CCN1CCN(Cc2ccc3nsnc3c2)CC1CCO (configuration not stated) | inconclusive: 2.82 µM [quencher, side channel, full curve] |
| Cc1ccc(OCC(=O)N2c3ccccc3NC(=O)C2(C)C)c([N+](=O)[O-])n1 | inconclusive: 14.1 µM [quencher, side channel, partial curve] |
| Cc1csc2c(=O)sc(NC(=O)c3ccc(F)cc3)nc12 | inactive |
| Cn1c2ccc(F)cc2c2nnc(NN)nc21 | inconclusive: 25.1 µM [quencher, side channel, partial curve] |
| Clc1ccc(Cn2ncc3c(N4CCCC4)ncnc32)cc1 | inactive |
| O=c1[nH]c2ccccc2c(O)c1-[n+]1ccccc1 | inactive |
| COc1ccc(-c2cc(-c3ccc(N)cc3)nc(N)c2C#N)cc1OC | inconclusive: 15.8 µM [quencher, side channel, partial curve] |
| CC(=Nc1ccc(C)cc1)c1sc2ccccc2c1O | inconclusive: 25.1 µM [quencher, side channel, single point] |
| CCCCCCCNC1=CC(=O)CC(c2ccccc2)C1 (configuration not stated) | inactive |
| CCC1CCCCN1C(=O)COC(=O)c1cc2ccccc2cc1O (configuration not stated) | inconclusive: 17.8 µM [quencher, side channel, partial curve] |
| CCOC(=O)CSc1c(-c2cccs2)[nH]c2ccccc12 | inactive |
| Cc1ccc(NC(=S)NN(C)c2cc(C)nc(C)n2)cc1 | inconclusive: 100 µM [inhibitor, partial curve] |
| CCN1/C(=C/c2cc[n+](C)cc2)C=Cc2cc(C)ccc21 | inconclusive: 7.94 µM [quencher, side channel, partial curve] |
| O=C(Nc1nc2ccc(Cl)cc2s1)[C@@H]1CCCN1C(=O)c1cccs1 | inconclusive: 0.891 µM [quencher, side channel, single point] |
| COc1ccc(Cn2ccnc2)cc1[N+](=O)[O-] | inconclusive: 35.5 µM [quencher, side channel, single point] |
